Results from patent US20250051434A1 (Merck Sharp & Dohme, published 2025).

Target: human IL-12 receptor (IL-12R) (human, UniProt P42701 24-662; Q99665 24-862)
Assay: cell-based or functional assay

Row | Binder | Mean Fold Reduction (potency vs IL-12 WT by EC50; HEK-Blue IL-12 STAT4/SEAP reporter)
1 | IL-12-Fc-24 (Fc fusion) chain 1: TPDPGMFPCLHHSQNLLRAVSNMLQKARQTLEFYPCTSEEIDHEDITKDKTSTVEACLPLELTKNESCLNSRETSFITNGSCLASRKTSFMMALCLSSIYEDLKMYQVEFKTMNAKLLMDPKRQIFLDQNMLAVIDELMQALNFNSETVPQKSSLEEPDFYKTKIKLCILLHAFRIRAVTIDRVMSYLNASGGGGSGGGGSGGGGS[skipping human IgG1 Fc with L234A L235A D265S S354C T366W (EU numbers)] chain 2: IWELKKDVYVVELDWYPDAPGEMVVLTCDTPEEDGITWTLDQSSEVLGSGKTLTIQVKEFGDAGQYTCHKGGEVLSHSLLLLHKEEDGIWSTDILKDQKEPKNKTFLRCEAKNYSGRFTCWWLTTISTDLTFSVKSSRGSSDPQGVTCGAATLSAERVRGDNKEYEYSVECQEDSACPAAEESLPIEVMVDAVHKLKYENYTSSFFIRDIIKPDPPKNLQLKPLKNSRQVEVSWEYPDTWSTPHSYFSLTFCVQVQGKSKREKKDRVFTDKTSATVICRKNASISVRAQDRYYSSSWSEWASVPCSGGGGDKTHTCPPCPAPEAAGGPSVFLFPPKPKDTLMISRTPEVTCVVVSVSHEDPEVKFNWYVDGVEVHNAKTKPREEQYNSTYRVVSVLTVLHQDWLNGKEYKCKVSNKALPAPIEKTISKAKGQPREPQVCTLPPSRDELTKNQVSLSCAVKGFYPSDIAVEWESNGQPENNYKTTPPVLDSDGSFFLVSKLTVDKSRWQQGNVFSCSVMHEALHNHYTQKSLSLSPGK | 1 fold
2 | IL-12-Fc-25 (Fc fusion) chain 1: TPDPGMFPCLHHSQNLLRAVSNMLQKARQTLEFYPCTSEEIDHEDITKDKTSTVEACLPLELTKNESCLNSRETSFITNGSCLASRKTSFMMALCLSSIYEDLKMYQVEFKTMNAKLLMDPKRQIFLDQNMLAVIDELMQALNFNSETVPQKSSLEEPDFYKTKIKLCILLHAFRIRAVTIDRVMSYLNASGGGGSGGGGSGGGGS[skipping human IgG1 Fc with L234A L235A D265S S354C T366W (EU numbers)] chain 2: IWELKKDVYVVELDWYPDAPGEMVVLTCDTPEEDGITWTLDQSSEVLGSGKTLTIQVKEFGDAGQYTCHKGGEVLSHSLLLLHKYEDGIWSTDILKDQKEPKNKTFLRCEAKNYSGRFTCWWLTTISTDLTFSVKSSRGSSDPQGVTCGAATLSAERVRGDNKEYEYSVECQEDSACPAAEESLPIEVMVDAVHKLKYENYTSSFFIRDIIKPDPPKNLQLKPLKNSRQVEVSWEYPDTWSTPHSYFSLTFCVQVQGKSKREKKDRVFTDKTSATVICRKNASISVRAQDRYYSSSWSEWASVPCSGGGGDKTHTCPPCPAPEAAGGPSVFLFPPKPKDTLMISRTPEVTCVVVSVSHEDPEVKFNWYVDGVEVHNAKTKPREEQYNSTYRVVSVLTVLHQDWLNGKEYKCKVSNKALPAPIEKTISKAKGQPREPQVCTLPPSRDELTKNQVSLSCAVKGFYPSDIAVEWESNGQPENNYKTTPPVLDSDGSFFLVSKLTVDKSRWQQGNVFSCSVMHEALHNHYTQKSLSLSPGK | 2 fold
3 | IL-12-Fc-26 (Fc fusion) chain 1: TPDPGMFPCLHHSQNLLRAVSNMLQKARQTLEFYPCTSEEIDHEDITKDKTSTVEACLPLELTKNESCLNSRETSFITNGSCLASRKTSFMMALCLSSIYEDLKMYQVEFKTMNAKLLMDPKRQIFLDQNMLAVIDELMQALNFNSETVPQKSSLEEPDFYKTKIKLCILLHAFRIRAVTIDRVMSYLNASGGGGSGGGGSGGGGS[skipping human IgG1 Fc with L234A L235A D265S S354C T366W (EU numbers)] chain 2: IWELKKDVYVVELDWYPDAPGEMVVLTCDTPEEDGITWTLDQSSEVLGSGKTLTIQVKEFGDAGQYTCHKGGEVLSHSLLLLHKKEAGIWSTDILKDQKEPKNKTFLRCEAKNYSGRFTCWWLTTISTDLTFSVKSSRGSSDPQGVTCGAATLSAERVRGDNKEYEYSVECQEDSACPAAEESLPIEVMVDAVHKLKYENYTSSFFIRDIIKPDPPKNLQLKPLKNSRQVEVSWEYPDTWSTPHSYFSLTFCVQVQGKSKREKKDRVFTDKTSATVICRKNASISVRAQDRYYSSSWSEWASVPCSGGGGDKTHTCPPCPAPEAAGGPSVFLFPPKPKDTLMISRTPEVTCVVVSVSHEDPEVKFNWYVDGVEVHNAKTKPREEQYNSTYRVVSVLTVLHQDWLNGKEYKCKVSNKALPAPIEKTISKAKGQPREPQVCTLPPSRDELTKNQVSLSCAVKGFYPSDIAVEWESNGQPENNYKTTPPVLDSDGSFFLVSKLTVDKSRWQQGNVFSCSVMHEALHNHYTQKSLSLSPGK | 1 fold
4 | IL-12-Fc-27 (Fc fusion) chain 1: TPDPGMFPCLHHSQNLLRAVSNMLQKARQTLEFYPCTSEEIDHEDITKDKTSTVEACLPLELTKNESCLNSRETSFITNGSCLASRKTSFMMALCLSSIYEDLKMYQVEFKTMNAKLLMDPKRQIFLDQNMLAVIDELMQALNFNSETVPQKSSLEEPDFYKTKIKLCILLHAFRIRAVTIDRVMSYLNASGGGGSGGGGSGGGGS[skipping human IgG1 Fc with L234A L235A D265S S354C T366W (EU numbers)] chain 2: IWELKKDVYVVELDWYPDAPGEMVVLTCDTPEEDGITWTLDQSSEVLGSGKTLTIQVKEFGDAGQYTCHKGGEVLSHSLLLLHKKELGIWSTDILKDQKEPKNKTFLRCEAKNYSGRFTCWWLTTISTDLTFSVKSSRGSSDPQGVTCGAATLSAERVRGDNKEYEYSVECQEDSACPAAEESLPIEVMVDAVHKLKYENYTSSFFIRDIIKPDPPKNLQLKPLKNSRQVEVSWEYPDTWSTPHSYFSLTFCVQVQGKSKREKKDRVFTDKTSATVICRKNASISVRAQDRYYSSSWSEWASVPCSGGGGDKTHTCPPCPAPEAAGGPSVFLFPPKPKDTLMISRTPEVTCVVVSVSHEDPEVKFNWYVDGVEVHNAKTKPREEQYNSTYRVVSVLTVLHQDWLNGKEYKCKVSNKALPAPIEKTISKAKGQPREPQVCTLPPSRDELTKNQVSLSCAVKGFYPSDIAVEWESNGQPENNYKTTPPVLDSDGSFFLVSKLTVDKSRWQQGNVFSCSVMHEALHNHYTQKSLSLSPGK | 8 fold
5 | IL-12-Fc-1 (Fc fusion) chain 1: TPDPGMFPCLHHSQNLLRAVSNMLQKARQTLEFYPCTSEKIDHEDITKDKTSTVEACLPLELTKNESCLNSRETSFITNGSCLASRKTSFMMALCLSSIYEDLKMYQVEFKTMNAKLLMDPKRQIFLDQNMLAVIDELMQALNFNSETVPQKSSLEEPDFYKTKIKLCILLHAFRIRAVTIDRVMSYLNASGGGGSGGGGSGGGGS[skipping human IgG1 Fc with L234A L235A D265S S354C T366W (EU numbers)] chain 2: IWELKKDVYVVELDWYPDAPGEMVVLTCDTPEEDGITWTLDQSSEVLGSGKTLTIQVKEFGDAGQYTCHKGGEVLSHSLLLLHKKEDGIWSTDILKDQKEPKNKTFLRCEAKNYSGRFTCWWLTTISTDLTFSVKSSRGSSDPQGVTCGAATLSAERVRGDNKEYEYSVECQEDSACPAAEESLPIEVMVDAVHKLKYENYTSSFFIRDIIKPDPPKNLQLKPLKNSRQVEVSWEYPDTWSTPHSYFSLTFCVQVQGKSKREKKDRVFTDKTSATVICRKNASISVRAQDRYYSSSWSEWASVPCSGGGGDKTHTCPPCPAPEAAGGPSVFLFPPKPKDTLMISRTPEVTCVVVSVSHEDPEVKFNWYVDGVEVHNAKTKPREEQYNSTYRVVSVLTVLHQDWLNGKEYKCKVSNKALPAPIEKTISKAKGQPREPQVCTLPPSRDELTKNQVSLSCAVKGFYPSDIAVEWESNGQPENNYKTTPPVLDSDGSFFLVSKLTVDKSRWQQGNVFSCSVMHEALHNHYTQKSLSLSPGK | 2 fold
6 | IL-12-Fc-28 (Fc fusion) chain 1: TPDPGMFPCLHHSQNLLRAVSNMLQKARQTLEFYPCTSEEIDHEDITKDKTSTVEACLPLELTKNESCLNSRETSFITNGSCLASRKTSFMMALCLSSIYEDLKMYQVEFKTMNAKLLMDPKRQIFLDQNMLAVIDELMQALNFNSETVPQKSSLEEPDFYKTKIKLCILLHAFRIRAVTIDRVMSYLNASGGGGSGGGGSGGGGS[skipping human IgG1 Fc with L234A L235A D265S S354C T366W (EU numbers)] chain 2: IWELKKDVYVVELDWYPDAPGEMVVLTCDTPEEDGITWTLDQSSEVLGSGKTLTIQVKEFGDAGQYTCHKGGEVLSHSLLLLHKKEDGAWSTDILKDQKEPKNKTFLRCEAKNYSGRFTCWWLTTISTDLTFSVKSSRGSSDPQGVTCGAATLSAERVRGDNKEYEYSVECQEDSACPAAEESLPIEVMVDAVHKLKYENYTSSFFIRDIIKPDPPKNLQLKPLKNSRQVEVSWEYPDTWSTPHSYFSLTFCVQVQGKSKREKKDRVFTDKTSATVICRKNASISVRAQDRYYSSSWSEWASVPCSGGGGDKTHTCPPCPAPEAAGGPSVFLFPPKPKDTLMISRTPEVTCVVVSVSHEDPEVKFNWYVDGVEVHNAKTKPREEQYNSTYRVVSVLTVLHQDWLNGKEYKCKVSNKALPAPIEKTISKAKGQPREPQVCTLPPSRDELTKNQVSLSCAVKGFYPSDIAVEWESNGQPENNYKTTPPVLDSDGSFFLVSKLTVDKSRWQQGNVFSCSVMHEALHNHYTQKSLSLSPGK | 1 fold
7 | IL-12-Fc-29 (Fc fusion) chain 1: TPDPGMFPCLHHSQNLLRAVSNMLQKARQTLEFYPCTSEEIDHEDITKDKTSTVEACLPLELTKNESCLNSRETSFITNGSCLASRKTSFMMALCLSSIYEDLKMYQVEFKTMNAKLLMDPKRQIFLDQNMLAVIDELMQALNFNSETVPQKSSLEEPDFYKTKIKLCILLHAFRIRAVTIDRVMSYLNASGGGGSGGGGSGGGGS[skipping human IgG1 Fc with L234A L235A D265S S354C T366W (EU numbers)] chain 2: IWELKKDVYVVELDWYPDAPGEMVVLTCDTPEEDGITWTLDQSSEVLGSGKTLTIQVKEFGDAGQYTCHKGGEVLSHSLLLLHKKEDGSWSTDILKDQKEPKNKTFLRCEAKNYSGRFTCWWLTTISTDLTFSVKSSRGSSDPQGVTCGAATLSAERVRGDNKEYEYSVECQEDSACPAAEESLPIEVMVDAVHKLKYENYTSSFFIRDIIKPDPPKNLQLKPLKNSRQVEVSWEYPDTWSTPHSYFSLTFCVQVQGKSKREKKDRVFTDKTSATVICRKNASISVRAQDRYYSSSWSEWASVPCSGGGGDKTHTCPPCPAPEAAGGPSVFLFPPKPKDTLMISRTPEVTCVVVSVSHEDPEVKFNWYVDGVEVHNAKTKPREEQYNSTYRVVSVLTVLHQDWLNGKEYKCKVSNKALPAPIEKTISKAKGQPREPQVCTLPPSRDELTKNQVSLSCAVKGFYPSDIAVEWESNGQPENNYKTTPPVLDSDGSFFLVSKLTVDKSRWQQGNVFSCSVMHEALHNHYTQKSLSLSPGK | 1 fold
